This passage reports GI50 and TGI results from PubChem BioAssay (NCI).

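96-well plates; 48 h exposure; 5 concentrations. Endpoints by linear interpolation between flanking doses. Not reached: highest tested concentration assigned. GI50 is the concentration that inhibits growth by half. At the TGI there is no net growth.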

This assay concerns NCI-H322M lung. The experiment in a line: NCI tumour cell line growth inhibition, 48 h.
For the molecule `Cn1cc(-c2cc(N)n3nc(-c4c[nH]c5ccccc45)cc3n2)c2cc(Br)ccc21`, the GI50 was 2.13 µM and the TGI turned out to be 5.82 µM.

Regarding `Oc1ccc(Cl)c(Nc2nc(SCCN3CCOCC3)nc3c2cnn3CC(Cl)c2ccc(Br)cc2)c1` (stereo not drawn), the GI50 is 35.1 µM and the TGI was more than 100 µM.

Consider `Cn1cc(-c2nc(N)nnc2-c2c[nH]c3ccc(Br)cc23)c2cc(Br)cnc21`, for which the GI50 is 0.62 µM and the TGI was found to be 19.5 µM.

With `COc1ccc(C(=O)/C=C/c2ccc3ccccc3c2)cc1S(N)(=O)=O`, the GI50 was 2.3 µM and the TGI was found to be 8.36 µM.
